Results published in PubChem BioAssay AID504332 (National Center for Advancing Translational Sciences (NCATS), 2011).
Screen size: about 350,000 compounds; about 31,000 (8.9%) were called active. Inconclusive results, whose numbers are uncertain, are shown with a selection of clear calls. Calls follow the shape of the dose curve; as a rule, active = well fitted inhibition curve with a large enough effect; inconclusive = small, poorly fitted or top-dose-only effect; inactive = no such curve, though single readings can be large or run the other way. A potency beside an inconclusive call is a rough fit, not a confirmed value.

molecular target: Histone-lysine N-methyltransferase EHMT2 (Homo sapiens) (UniProt Q96KQ7); assay: qHTS Assay for Inhibitors of Histone Lysine Methyltransferase G9a; conditions: G9a H3K9 monomethylation, AlphaScreen, 2 h; activity, negative = inhibition: at 59 µM (top of the series) unless noted; also: nearly all actives have a fitted effect of over 75% in size
Outline: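 Compounds were preincubated with 20 nM G9a for 15 min, after which biotinylated H3K9 peptide (500 nM) and SAM (20 uM) started a 2 h room-temperature reaction. Monomethylated product was quantified by antibody-based AlphaScreen chemiluminescence.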
% is scaled to controls: 0 for no effect and ±100 for the full control effect; potency is read from the fitted curve at half-maximal effect; tags tell the direction and shape of the fitted curve.

UniProt Q96KQ7, sequence (Q96KQ7 whole entry, looked up): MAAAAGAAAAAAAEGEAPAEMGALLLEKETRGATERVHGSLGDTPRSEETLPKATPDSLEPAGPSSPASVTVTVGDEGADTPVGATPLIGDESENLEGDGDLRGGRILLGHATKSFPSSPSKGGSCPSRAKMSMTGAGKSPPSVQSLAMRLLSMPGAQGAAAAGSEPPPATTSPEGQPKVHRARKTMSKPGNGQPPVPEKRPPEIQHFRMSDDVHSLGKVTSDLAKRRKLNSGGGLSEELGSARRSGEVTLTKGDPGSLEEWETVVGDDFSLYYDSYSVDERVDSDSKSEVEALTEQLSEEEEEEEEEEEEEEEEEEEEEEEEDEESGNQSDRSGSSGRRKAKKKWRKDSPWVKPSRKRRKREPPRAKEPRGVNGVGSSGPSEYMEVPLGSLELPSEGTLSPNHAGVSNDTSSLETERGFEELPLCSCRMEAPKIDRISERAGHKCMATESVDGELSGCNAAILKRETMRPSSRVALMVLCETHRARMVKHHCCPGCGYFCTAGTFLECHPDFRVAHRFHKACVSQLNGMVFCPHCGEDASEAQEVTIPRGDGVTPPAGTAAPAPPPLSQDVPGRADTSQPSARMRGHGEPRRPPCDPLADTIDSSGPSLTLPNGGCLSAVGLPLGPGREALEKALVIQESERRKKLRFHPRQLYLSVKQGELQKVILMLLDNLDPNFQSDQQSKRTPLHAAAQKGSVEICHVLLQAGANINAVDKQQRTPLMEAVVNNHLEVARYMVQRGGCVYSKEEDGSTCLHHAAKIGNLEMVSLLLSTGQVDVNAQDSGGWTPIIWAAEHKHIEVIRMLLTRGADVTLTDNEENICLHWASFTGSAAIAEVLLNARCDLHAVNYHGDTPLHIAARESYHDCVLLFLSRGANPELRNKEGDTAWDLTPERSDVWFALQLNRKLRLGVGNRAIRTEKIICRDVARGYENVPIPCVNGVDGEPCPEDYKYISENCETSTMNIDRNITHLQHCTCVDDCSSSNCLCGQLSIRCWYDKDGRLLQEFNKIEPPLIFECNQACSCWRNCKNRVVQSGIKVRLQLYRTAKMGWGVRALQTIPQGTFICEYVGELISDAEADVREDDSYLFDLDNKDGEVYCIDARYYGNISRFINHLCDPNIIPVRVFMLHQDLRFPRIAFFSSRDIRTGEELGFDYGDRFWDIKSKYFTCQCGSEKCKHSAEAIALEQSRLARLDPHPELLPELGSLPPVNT

Row | Structure (SMILES) | Potency | activity, negative = inhibition
1 | CC(C)(C)NC(=O)CN(c1cccc([N+](=O)[O-])c1)S(=O)(=O)c1ccccc1 | inconclusive: 79.4 µM [inhibitor, single point] | –
2 | O=C(CSC(=S)N1CCOCC1)Nc1nc(=O)c2ccccc2s1 | active: 3.98 µM | –
3 | O=C(CCn1c(=O)c2cccn2c2cccnc21)NCc1cccc(Br)c1 | inactive | –
4 | O=C(NNC(=S)NC(=O)c1ccco1)c1ccc(NC(=O)c2ccccc2)cc1 | inconclusive: 50.1 µM [inhibitor, partial curve, poor fit] | –
5 | CC1CCCCC12NC(=O)N(CC(=O)Nc1ccc(S(=O)(=O)Nc3ncccn3)cc1)C2=O (stereo not drawn) | – | inactive: -10.5% [at 12.7 µM]
6 | COc1cc(NC(=O)c2ccc(=O)[nH]n2)cc(OC)c1OC | inactive | –
7 | CSc1nc(N)nc(SCC(=O)c2ccccc2)c1C#N | – | inconclusive: -52.3% [inhibitor]
8 | C/C(=N\Nc1nccnc1Cl)c1c(F)c(F)c(F)c(F)c1F | inconclusive: 89.1 µM [inhibitor, single point] | –
9 | Cc1ccc(C)c(CN2C(=O)c3ccccc3S(=O)(=O)c3ccc(C(=O)N4CCN(Cc5ccccc5)CC4)cc32)c1 | inconclusive: 10 µM [inhibitor, partial curve, poor fit] | –
10 | COc1ccc(-n2c(SCC(=O)Nc3ccc4c(c3)OCO4)nc3c(c2=O)SCC3)cc1 | inconclusive: 10 µM [inhibitor, partial curve, poor fit] | –
11 | Cc1cccc(C)c1NC(=O)CSc1nccn1C | inactive | –
12 | CC(=O)N1CCCN(C(=O)c2cc(COc3c(F)cccc3F)on2)CC1 | inconclusive: 89.1 µM [inhibitor, partial curve, poor fit] | –
13 | Cc1ccc(S(=O)(=O)N2CCCC(C(=O)NCc3ccccn3)C2)cc1 (stereo not drawn) | inconclusive: 50.1 µM [inhibitor, partial curve] | –
14 | O=C(NCCc1ccccc1)c1ccc2nc(-c3ccco3)c(-c3ccco3)nc2c1 | active: 1.41 µM | –
15 | CCOCCCn1c(SCC(=O)Nc2ccccc2OC)nc2c(oc3ccccc32)c1=O | inactive | –
16 | Cc1ccc(C)c(C(=O)N2CCC(c3nc4c(nnn4Cc4ccccc4)c(=O)[nH]3)CC2)c1 | inactive | –
17 | COc1ccc(C2c3cc(OC)c(OC)cc3CC(=O)N2c2cccc(C#N)c2)cc1 (stereo not drawn) | inactive | –
18 | O=C(CSc1nccc(=O)[nH]1)Nc1ccc(F)c([N+](=O)[O-])c1 | inconclusive: 7.94 µM [inhibitor, full curve, poor fit] | –
19 | CCN1CCN(c2ccc(NC(=O)c3cccc(N4CCCC4=O)c3)cc2)CC1 | inconclusive: 56.2 µM [inhibitor, single point] | –
20 | CCNC(=O)CSc1nc2cc(OC)c(OC)cc2c(=O)n1CCC1=CCCCC1 | inconclusive: 89.1 µM [inhibitor, partial curve, poor fit] | –
21 | CC(C)(C)c1cc(C(=S)N2CCN(CCO)CC2)cc(C(C)(C)C)c1O | inconclusive: 3.16 µM [inhibitor, partial curve, poor fit] | –
22 | CCC(C)Sc1nnc(NS(=O)(=O)Cc2ccccc2)s1 (stereo not drawn) | active: 31.6 µM | –

Row | Structure (SMILES) | Potency | activity, negative = inhibition
23 | Cc1ccc(S(=O)(=O)NN2C(=O)/C(=C/c3cccn3C)SC2=S)cc1 | active: 44.7 µM | –
24 | COc1ccc(OC)c(C2CC(=O)Nc3ccc4ccccc4c32)c1 (stereo not drawn) | inconclusive: 14.1 µM [inhibitor, partial curve, poor fit] | –
25 | c1ccc(-c2nnc3sc(CN4CCc5ccccc54)cn23)cc1 | inconclusive: 22.4 µM [inhibitor, single point] | –
26 | CCCCCC[n+]1c(-c2ccc(Cl)cc2Cl)csc1Nc1ccccc1 | inconclusive: 22.4 µM [inhibitor, single point] | –
27 | COCc1ccc(CN2CCc3c([nH]c4ccccc34)C2CC(C)C)o1 (stereo not drawn) | inconclusive: 70.8 µM [inhibitor, partial curve, poor fit] | –
28 | Cc1ccc(NC(=O)C2C3C=CC4(O3)C2C(=O)N(CCCN2CCOCC2)C4C(=O)NC2CCCCC2)cc1Cl (stereo not drawn) | inconclusive: 70.8 µM [inhibitor, partial curve, poor fit] | –
29 | CCOC(=O)C(=CNNc1c(C)csc1C(=O)OC)C(=O)OCC | active: 8.91 µM | –
30 | N#C/C(C(=O)NCc1ccccc1)=C1\SC(CCO)C(=O)N1c1ccccc1 (stereo not drawn) | inconclusive: 39.8 µM [inhibitor, single point] | –
31 | Oc1ccc(-c2nc3ncccn3c2Nc2ccc3c(c2)OCCO3)cc1 | – | inactive: 2.84% [at 12.7 µM]
32 | O=c1cc(-c2ccc(F)cc2)[nH][nH]1 | inconclusive: 89.1 µM [inhibitor, single point] | –
33 | C(=N\c1nc2ccccc2n1Cc1ccccc1)/c1cccs1 | inconclusive: 44.7 µM [inhibitor, partial curve] | –
34 | NC(=O)CC(NC(=O)Cc1cccc2ccccc12)c1ccc(NC2CCC2)c([N+](=O)[O-])c1 (stereo not drawn) | – | inconclusive: -84.8% [inhibitor]
35 | CCN(CC(=O)Nc1ccc(Br)cc1)CC(=O)Nc1cc(C)on1 | active: 79.4 µM | –
36 | CC(=O)Nc1cccc(C(=O)NC(C)c2ccc(-n3ccnc3)cc2)c1 (stereo not drawn) | active: 44.7 µM | –
37 | COC(=O)c1cn[nH]c1NC(=S)Nc1ccccc1C | inconclusive: 39.8 µM [inhibitor, single point] | –
38 | CC1CN(C2CCN(C(=O)c3ccccc3)CC2)CC(C)O1 (stereo not drawn) | active: 2.51 µM | –
39 | O=C(N/C(=C\c1ccco1)C(=O)N1CCC(O)CC1)c1ccccc1 | inconclusive: 63.1 µM [inhibitor, single point] | –
40 | COc1ccc(C2C3=C(CC(C)(C)CC3=O)N(C)C3=C2C(=O)CC(C)(C)C3)cc1OC | inconclusive: 25.1 µM [inhibitor, single point] | –
41 | CSc1ccc(S(=O)(=O)NCc2ccc(Cl)cc2)cc1 | – | inactive: 15.9% [at 12.7 µM]
42 | O=C(Nc1nnc(S(=O)(=O)N2CCOCC2)s1)c1cccc(F)c1 | inconclusive: 3.16 µM [inhibitor, partial curve, poor fit] | –
43 | CN(C)c1ccc(-c2n[nH]c(=S)n2-c2ccccc2)cc1 | active: 1.78 µM | –
